Data reported in PubChem BioAssay AID588855 (National Center for Advancing Translational Sciences (NCATS), 2011).
Values joined by “and” are separate entries in the source; they are usually repeats but may differ in a detail not shown here. Equal values may be shown once. Hit rate of the full screen: of about 410,000 compounds, about 5,000 (1.2%) were called active. This list was built around the results that the source calls inconclusive (neither active nor inactive); the mix of calls is not that of the screen. Calls come from the whole dose curve; as a rule, active = well fitted inhibition curve with a large enough effect; inconclusive = small, poorly fitted or top-dose-only effect; inactive = no such curve, though single readings can be large or run the other way. Where the call is inconclusive, the potency comes from a doubtful curve fit.

Assay: qHTS for Inhibitors of TGF-b; note: nearly all actives have a fitted effect of over 65% in size
Conditions: HepG2 CAGA-GFP TGF-b/SMAD3 reporter, GFP fluorescence, 18 h, TGF-beta stimulated, 500 pg/mL final; series mostly up to 46.1 µM; activity, negative = inhibition: at the top concentration
Method in brief: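 Using HEPG2 CAGA-GFP reporter cells at 1000 cells/well, we pinned test compounds, stimulated with recombinant TGF-beta (500 pg/mL final) and measured total well GFP after 18 h.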
% is set by controls: 0 for no effect and ±100 for the full control effect; potency is the fitted concentration of half-maximal effect; tags give direction and shape of the fitted curve.

Structure (SMILES) | Potency | activity, negative = inhibition
c1cc2cc(-c3c(-c4ccc5c(c4)OCO5)noc3-c3ccsc3)ccc2[nH]1 | inconclusive: 35.5 µM [inhibitor, single point] and inconclusive: 15.8 µM [inhibitor, partial curve, poor fit] | 
Cc1ccc(S(=O)(=O)N2CCSC2c2ccco2)cc1 (stereo not drawn) | inconclusive: 3.55 µM [inhibitor, partial curve, poor fit] | 
O=C(O)c1cc2ccccc2c2c1C(=O)c1ccccc1-2 |  | inactive: -4.88%
COc1cc(/C=N/NC(=O)CCc2ccccc2)ccc1O | inconclusive: 20 µM [inhibitor, partial curve, poor fit] | 
Cn1cccc([N+](=O)[O-])c1=O |  | inactive: -4.9%
CN(C)c1oc(-c2ccccc2Cl)nc1P(=O)(c1ccccc1)c1ccccc1 | inconclusive: 12.6 µM [inhibitor, partial curve, poor fit] | 
C=CCSc1nnc(NC(=O)c2cccc(S(=O)(=O)N(C)c3ccccc3)c2)s1 | inconclusive: 35.5 µM [inhibitor, single point] | 
O=C(Nc1ccccc1F)NC1CCN(Cc2nnnn2Cc2ccc(F)cc2)CC1 |  | inactive: -6.28%
N#C/C(=C\c1ccc([N+](=O)[O-])o1)c1nc2ccccc2[nH]1 | inconclusive: 3.98 µM [inhibitor, full curve, poor fit] | 
Cc1cc(C)n2nc(C(=O)N/N=C/c3c4ccccc4cc4ccccc34)nc2n1 | inconclusive: 10 µM [inhibitor, partial curve, poor fit] | 
COCCn1c(SCC(=O)NC(=O)NC(C)(C)C)nc2ccccc21 | inconclusive: 1.12 µM [inhibitor, full curve, poor fit] | 
COc1cc(C2Nc3cc(C)c(C)cc3NC3=C2C(=O)CC(C)(C)C3)ccc1OC(C)=O (stereo not drawn) |  | inactive: -4.51%
CCc1nn(CC(=O)NC(C)CC)c(=O)c2cc3occc3n12 (stereo not drawn) | inconclusive: 10 µM [inhibitor, partial curve, poor fit] | 
Cc1ccccc1NC(=O)c1ccc(N(Cc2ccccc2)S(C)(=O)=O)cc1 | inconclusive: 35.5 µM [inhibitor, single point] | 
CCOC(=O)N1CCN(C(=O)c2ccc3c(c2)N(Cc2ccc(C)cc2)CCS3)CC1 | inconclusive: 22.4 µM [inhibitor, single point] | 
COc1ccc(OCC(O)CNS(=O)(=O)c2ccc(NC(C)=O)cc2)cc1 (stereo not drawn) |  | inactive: -22.6%
c1ccc2c(CSCc3nc4ccccc4[nH]3)cccc2c1 | inconclusive: 10 µM [inhibitor, partial curve] | 
COc1ccc(C2CC(c3ccccc3)=NN2c2ccc(C(N)=O)cc2)cc1 (stereo not drawn) | active: 15.8 µM | 
CC(=O)Nc1ccc(SCCN2CCN(CCc3ccccc3)CCC2=O)cc1 | inconclusive: 22.4 µM [inhibitor, single point] | 
O=C(COc1ccccc1)OCc1cc(=O)n2nc(-c3cccs3)sc2n1 | inconclusive: 2.51 µM [inhibitor, full curve, poor fit] | 
COc1cc(NC(=O)C(Cc2ccccc2)n2cccc2)cc(OC)c1 (stereo not drawn) | inconclusive: 3.98 µM [inhibitor, single point] | 

Structure (SMILES) | Potency | activity, negative = inhibition
CCOC(=O)c1sc2cccc(F)c2c1N | inconclusive: 35.5 µM [inhibitor, single point] | 
C=CCNc1nc(Cl)nc(NC2CCCCC2)n1 |  | inactive: -5.69%
Cc1ccccc1NP1(=O)OCCCN1Cc1ccccc1Cl (stereo not drawn) | inconclusive: 3.16 µM [inhibitor, single point] | 
O=S(=O)(NCC(O)c1ccccc1)c1ccc(-c2ccccn2)s1 (stereo not drawn) | inconclusive: 35.5 µM [inhibitor, single point] | 
Cc1ccc(-c2nnc3sc(C4COc5ccccc5O4)nn23)cc1 (stereo not drawn) |  | inactive: 21.3%
O=C(NNC(=S)NC1CCCCC1)c1ccc(Cl)s1 | inconclusive: 35.5 µM [inhibitor, single point] | 
COc1ccc(C2=Nn3c([n+](C)c4ccccc43)SC2)cc1 | inconclusive: 2.51 µM [inhibitor, partial curve] | 
CCOc1cc(C(=O)N2CCN(c3ccccc3)CC2)cc(OCC)c1OCC | inconclusive: 35.5 µM [inhibitor, single point] | 
C[C@@H]1CCCCO[C@@H](CN(C)CC2CCCCC2)[C@@H](C)CN([C@H](C)CO)C(=O)c2cc(NS(=O)(=O)c3ccc(Cl)cc3)ccc2O1 | inconclusive: 25.1 µM [inhibitor, partial curve, poor fit] | 
CC1=Nc2cc([N+](=O)[O-])ccc2NC(C)(C)C1 | inconclusive: 25.1 µM [inhibitor, single point] | 
CCN(CC)CCN1C(=O)c2oc3ccccc3c(=O)c2C1c1cccc(Br)c1 (stereo not drawn) | inconclusive: 6.31 µM [inhibitor, partial curve, poor fit] | 
C=C1CCc2c([nH]c3ccc(OCC(C)C)cc23)C1=O | active: 5.01 µM | 
CC(=O)c1cccc(NS(=O)(=O)c2cccc(S(=O)(=O)c3ccc(Br)cc3)c2)c1 | inconclusive: 11.2 µM [inhibitor, partial curve, poor fit] | 
COc1ccc(N2CCN(C(=O)CSCc3ccc(C)cc3)CC2)cc1 | inconclusive: 11.2 µM [inhibitor, single point] | 
COc1ccc(-c2nc(CSCC(=O)N3CCN(c4ccccc4)CC3)c(C)o2)cc1 | inconclusive: 5.62 µM [inhibitor, partial curve, poor fit] | 
C=CCn1cc(CN2CCC(C(=O)Nc3cccc(-c4cccc(Cl)c4)c3)CC2)c(C)n1 | inconclusive: 35.5 µM [inhibitor, single point] | 
O=S(=O)(NC1CCCCC1)c1ccc(Br)cc1 | inconclusive: 35.5 µM [inhibitor, single point] | 
COc1ccc(C2Nc3ccccc3C(=O)N2Cc2ccco2)cc1COc1c(C)cccc1C (stereo not drawn) | inconclusive: 35.5 µM [inhibitor, single point] | 
COc1ccc(C)cc1NC(=O)C1CCCN1C(=O)OCc1ccccc1 (stereo not drawn) |  | inactive: 7.66%
CCCS(=O)(=O)c1ncc(Cl)c(C(=O)Nc2sc3c(c2C(=O)NCC)CCCC3)n1 | inconclusive: 1.58 µM [inhibitor, partial curve, poor fit] | 
Cc1ccc(NC(=O)CCS(=O)(=O)c2ccc3c(c2)oc(=O)n3C)c(Br)c1 |  | inactive: -10.4%

Structure (SMILES) | Potency | activity, negative = inhibition
O=C(Nc1c2c(nn1-c1ccccc1)CS(=O)(=O)C2)c1ccc2c(c1)OCO2 | inconclusive: 5.62 µM [inhibitor, single point] | 
COc1ccc(NC(=O)c2cc3c(C)nn(-c4ccccc4)c3s2)c(OC)c1 |  | inactive: -8.83%
CCOc1cc(S(=O)(=O)NCCc2c(C)[nH]c3ccc(C)cc23)ccc1Br | inconclusive: 25.1 µM [inhibitor, single point] | 
O=C(NCC(=O)N(c1ccc(Cl)cc1)C(C(=O)NC1CCCC1)c1cccnc1)c1ccco1 (stereo not drawn) |  | inactive: 10.8%
CCOC(=O)c1c2c(n3ccccc13)C(=O)c1ccccc1C2=O | inconclusive: 3.55 µM [inhibitor, single point] | 
CSc1ccc(CCNC(=O)c2c(C)oc3ncn(C)c(=O)c23)cc1 | inconclusive: 6.31 µM [inhibitor, single point] | 
Cc1ccc(Cl)cc1NC(=O)C1CCCN1S(=O)(=O)c1ccc(-c2ccc(=O)[nH]n2)s1 (stereo not drawn) |  | inactive: -16.8%
O=C(CN1c2ccccc2S(=O)(=O)c2ccccc21)Nc1cccc(C(F)(F)F)c1 | inconclusive: 22.4 µM [inhibitor, single point] | 
COc1ccc(Br)cc1CN1CCN(Cc2c[nH]c3ccccc23)CC1 | inconclusive: 28.2 µM [inhibitor, single point] | 
CC(=O)N(/N=C/c1ccc([N+](=O)[O-])o1)c1nc2ccccc2c(=O)n1-c1ccccc1 | inconclusive: 8.91 µM [inhibitor, partial curve, poor fit] | 
O=C(c1ccc2c(=O)n(Cc3ccccc3Cl)c(=S)[nH]c2c1)N1CCCC1 |  | inactive: 3.74%
O=C(Cc1csc(Nc2nc(=S)[nH]c3ccccc23)n1)NCCCN1CCN(c2ccccc2F)CC1 | inconclusive: 22.4 µM [inhibitor, single point] | 
Cc1ccc(S(=O)(=O)N(CC(=O)NCCC2=CCCCC2)Cc2ccccc2)cc1 | inconclusive: 17.8 µM [inhibitor, single point] | 
CC12CCC(C(N)=O)(C1Br)C2(C)C (stereo not drawn) | inconclusive: 0.112 µM [inhibitor, full curve, poor fit] | 
COc1ccc(NC(=O)CCS(=O)(=O)c2ccccc2Cl)cc1S(=O)(=O)Nc1ccc(Cl)cc1 | inconclusive: 35.5 µM [inhibitor, single point] | 
O=C(c1cc(-c2cccs2)on1)N1CCN(C(c2ccccc2)c2ccccc2)CC1 | inconclusive: 3.55 µM [inhibitor, full curve] | 
Cc1cccc([C@@H]2[C@@H]3C(=O)N(Cc4ccccc4)C(=O)[C@@H]3[C@]3(Cc4ccccc4)C(=O)N(c4ccc(C(F)(F)F)cc4)C(=O)N23)c1 |  | inactive: -31.7%
O=C(O)/C=C/C(=O)N1CCN(S(=O)(=O)c2cccc(C(F)(F)F)c2)CC1 |  | inactive: -7.09%
COC(=O)c1c(CSc2ccc(Cl)cc2)noc1C(=O)NCc1ccco1 | inconclusive: 0.562 µM [inhibitor, full curve, poor fit] | 
CC1CCN(c2ncnc3nc[nH]c23)CC1 | inconclusive: 31.6 µM [inhibitor, single point] | 
Cc1ccc2c(c1)nnn2C1CCN(S(=O)(=O)c2ccc(C(=O)N3C(C)CCCC3C)cc2)CC1 (stereo not drawn) | inconclusive: 11.2 µM [inhibitor, partial curve, poor fit] | 
